Experimental data: patent US6900216B2, “Dihydroimidazo[2,1-b]thiazole and dihydro-5h-thiazolo[3,2-A]pyrimidines as antidepressant agents” (Knoll GmbH, priority 2000, dated 2005)
Like-named read-outs stand apart in the source and are kept apart here. Entries with a single value are a further part of the results.

melting point (Method A, first crop): 235 to 238 °C
melting point (Method A, second crop from liquor): 234 to 237 °C
melting point (from combined hydrobromide samples, basified): 242 to 245 °C
SMILES: CC1=C(c2cccc3sccc23)N2CCN=C2S1.Cl [Example 9, 3-(benzo[b]thiophen-4-yl)-2-methyl-5,6-dihydroimidazo[2,1-b]thiazole hydrochloride]
